This is an account of results in paper PMC4336329 (PLoS ONE, 2015).

The whole screen tested about 310,000 compounds, of which about 2,200 (0.71%) showed an effect of 50% or more. The effect is printed as a negative number. Some of the results follow.

Sequence of human ether-à-go-go-related gene (hERG) potassium channel (Q12809 whole entry, looked up): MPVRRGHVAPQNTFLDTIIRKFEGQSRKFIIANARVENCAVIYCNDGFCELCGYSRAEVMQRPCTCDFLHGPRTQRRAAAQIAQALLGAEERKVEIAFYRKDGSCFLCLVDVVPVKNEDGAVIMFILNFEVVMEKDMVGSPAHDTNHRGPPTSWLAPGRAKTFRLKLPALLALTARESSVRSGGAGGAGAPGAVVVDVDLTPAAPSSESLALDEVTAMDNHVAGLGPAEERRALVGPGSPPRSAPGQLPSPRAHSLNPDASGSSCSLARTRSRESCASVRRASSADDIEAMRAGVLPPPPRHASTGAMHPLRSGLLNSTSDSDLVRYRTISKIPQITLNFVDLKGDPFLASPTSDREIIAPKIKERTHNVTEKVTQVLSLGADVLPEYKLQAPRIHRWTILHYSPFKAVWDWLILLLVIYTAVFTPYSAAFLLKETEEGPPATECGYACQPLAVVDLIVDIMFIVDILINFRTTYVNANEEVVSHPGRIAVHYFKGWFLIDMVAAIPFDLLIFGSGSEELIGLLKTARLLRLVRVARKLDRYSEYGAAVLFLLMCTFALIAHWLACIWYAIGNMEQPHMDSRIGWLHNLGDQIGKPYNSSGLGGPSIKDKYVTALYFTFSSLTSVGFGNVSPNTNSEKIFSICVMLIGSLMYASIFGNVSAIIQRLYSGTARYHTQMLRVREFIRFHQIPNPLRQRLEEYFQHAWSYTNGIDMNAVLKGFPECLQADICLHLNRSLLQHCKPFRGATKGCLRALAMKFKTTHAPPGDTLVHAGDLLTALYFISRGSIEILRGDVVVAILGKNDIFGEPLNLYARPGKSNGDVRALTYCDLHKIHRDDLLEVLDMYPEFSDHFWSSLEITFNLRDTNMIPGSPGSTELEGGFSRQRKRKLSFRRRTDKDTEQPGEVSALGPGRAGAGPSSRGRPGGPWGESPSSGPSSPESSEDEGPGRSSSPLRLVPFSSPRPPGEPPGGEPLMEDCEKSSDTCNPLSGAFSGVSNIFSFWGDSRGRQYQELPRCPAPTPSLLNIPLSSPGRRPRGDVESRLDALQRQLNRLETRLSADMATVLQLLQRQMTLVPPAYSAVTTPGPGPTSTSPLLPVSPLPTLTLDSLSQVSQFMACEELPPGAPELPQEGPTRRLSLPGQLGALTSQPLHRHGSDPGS

This experiment has as its target human ether-à-go-go-related gene (hERG) potassium channel (human, UniProt Q12809). The experiment is described as follows: primary screen, population patch clamp on CHO cells stably expressing hERG.
In the case of `COc1ccc(S(=O)(=O)N2CCOC2CNC(=O)C(=O)NCc2ccncc2)cc1C` (centres unmarked), the “hERG current change (%, negative = inhibition) at 1uM” value worked out at 3.12%.

On to `CC(C)C1=NN(C(=O)c2cccnc2)C(O)(C(F)(F)F)C1` (centres unmarked), for which the “hERG current change (%, negative = inhibition) at 1uM” value was -14.2%.

In the case of `O=S(=O)(Cc1ccccc1)NCc1ccccn1`, the “hERG current change (%, negative = inhibition) at 1uM” value amounted to 9.52%.

In the case of `O=C(O)c1ccc(NC2CC(=O)N(Cc3ccccc3)C2=O)cc1` (centres unmarked), the “hERG current change (%, negative = inhibition) at 1uM” value is recorded as 14%.

On to `Cc1ccc2c(c1)-c1c(ssc1=S)C(C)(C)N2C(=O)CSC1=NCCS1`, for which the “hERG current change (%, negative = inhibition) at 1uM” value came to 8.21%.

Take `O=S(=O)(NCc1cccnc1)c1ccc(Br)s1`: the “hERG current change (%, negative = inhibition) at 1uM” value turned out to be 3.29%.

Regarding `O=C(CN1CCOCC1)Nc1ccc2c(c1)OCCO2.O=C(O)C(=O)O`, the “hERG current change (%, negative = inhibition) at 1uM” value turned out to be 13.9%.

As to `CC(=O)c1ccc(NC(=O)c2cc(Cl)nc3ccccc23)cc1`, the “hERG current change (%, negative = inhibition) at 1uM” value was determined as 9.16%.

Regarding `C[C@]12CCC[C@H](O1)c1c(cc3c(c1O)C(=O)c1c(O)cc(O)cc1C3=O)O2`, the “hERG current change (%, negative = inhibition) at 1uM” value is on record as 3.96%.

On to `COc1ccc(C(CNC(=O)COc2ccccc2)N2CCCCC2)cc1` (centres unmarked), for which the “hERG current change (%, negative = inhibition) at 1uM” value is recorded as -4.21%.

`CCN(Cc1nc2ccccc2c(=O)[nH]1)C(=O)C1CC(=O)N(c2cccc3ccccc23)C1` (centres unmarked): the “hERG current change (%, negative = inhibition) at 1uM” value is reported as 6.74%.

For the compound `O=C(c1ccc(OC2CCN(Cc3ccc(C(F)(F)F)cc3)CC2)cc1)N1CCCCC1`, the “hERG current change (%, negative = inhibition) at 1uM” value was found to be 6.84%.

`C=CCNc1nc(N)c([N+](=O)[O-])c(Nc2ccccc2OC)n1`: the “hERG current change (%, negative = inhibition) at 1uM” value is given as 6.42%.

With `CCNC(=O)Nn1c(-c2ccccc2)nc2ccccc2c1=O`, the “hERG current change (%, negative = inhibition) at 1uM” value is 17%.

With `O=C(O)[C@@H]1[C@@H]2C[C@@H]2CN1c1ncccc1[N+](=O)[O-]`, the “hERG current change (%, negative = inhibition) at 1uM” value amounted to 17.5%.

Consider `COCCNC(=O)CN(C(=O)CCC(=O)Nc1ccccn1)c1ccc(C)cc1`, for which the “hERG current change (%, negative = inhibition) at 1uM” value came to 10.2%.

As to `CCOC(Cn1c(CCCO)nc2ccccc21)OCC`, the “hERG current change (%, negative = inhibition) at 1uM” value was -3.21%.

Consider `Cc1c(C(=O)N2CCC3(CC2)CC(=O)c2ccccc2O3)cccc1[N+](=O)[O-]`, for which the “hERG current change (%, negative = inhibition) at 1uM” value is given as -83.9%.

As for `Cc1cc(NC(=O)c2cnn3cccnc23)n(-c2ccccc2)n1`, the “hERG current change (%, negative = inhibition) at 1uM” value is -19.5%.

For `CCOc1ccccc1CNC(=O)C1CCN(C(=O)N2CC(C)Oc3ccc(C)cc32)CC1` (centres unmarked), the “hERG current change (%, negative = inhibition) at 1uM” value is 9.52%.

Consider `COc1ccccc1C(=O)OCCN1CCOCC1.Cl`, for which the “hERG current change (%, negative = inhibition) at 1uM” value is listed as -1.02%.

In the case of `Cc1cccc(NC2=NC(=S)N(CC#N)C23CCCCC3)c1`, the “hERG current change (%, negative = inhibition) at 1uM” value is on record as 7.23%.

As to `O=C(O)CSc1nnc(CNc2ccc(F)cc2)n1-c1ccccc1`, the “hERG current change (%, negative = inhibition) at 1uM” value turned out to be 9.25%.

For `COc1ccc(S(=O)(=O)N2CCOCC2)cc1NC(=O)COC(=O)C1CCC1`, the “hERG current change (%, negative = inhibition) at 1uM” value turned out to be 11.6%.

As to `Cn1cnnc1SCCOc1ccc(Cl)cc1`, the “hERG current change (%, negative = inhibition) at 1uM” value is 4.34%.

As to `Cc1cc(C(=O)Nc2ccc3[nH]ccc3c2)no1`, the “hERG current change (%, negative = inhibition) at 1uM” value is recorded as 13.4%.

Turning to `O=C1CN(C(=O)COC(=O)Cc2ccsc2)c2ccccc2N1`, the “hERG current change (%, negative = inhibition) at 1uM” value is reported as -4.73%.

In the case of `Cc1cc(C)n(-c2cc(Oc3ccccc3)ncn2)n1`, the “hERG current change (%, negative = inhibition) at 1uM” value is reported as 11%.

In the case of `Cc1nn(Cc2ccccc2)c(=O)n1N(C)c1ncc(C(F)(F)F)cc1Cl`, the “hERG current change (%, negative = inhibition) at 1uM” value stood at 5.61%.

Turning to `COc1ccc(-c2nc(CS(=O)CC(=O)NC3CCCCC3C)c(C)o2)cc1` (centres unmarked), the “hERG current change (%, negative = inhibition) at 1uM” value turned out to be 12.6%.

Consider `CC(CCc1ccccc1)C(=O)NO` (centres unmarked), for which the “hERG current change (%, negative = inhibition) at 1uM” value was determined as 10.1%.

In the case of `Cc1cc2cc3c(C)cc(=O)oc3c(C)c2o1`, the “hERG current change (%, negative = inhibition) at 1uM” value is reported as 18.6%.

For the compound `CN(C)CCCNc1ncc(C(F)(F)F)cc1Cl`, the “hERG current change (%, negative = inhibition) at 1uM” value stood at 10.3%.

Regarding `COCCNC(=O)CSc1nc2ccc(N3CCOCC3)cc2c(=O)n1CCc1ccccc1`, the “hERG current change (%, negative = inhibition) at 1uM” value is given as -21.3%.

As to `COc1ccc(C)cc1-n1nnnc1SCC(=O)NC(=O)NCc1ccco1`, the “hERG current change (%, negative = inhibition) at 1uM” value amounted to 16.7%.

For the compound `CCCNCC(O)Cn1c2ccccc2n2c(=O)cc(C)c(C#N)c12` (centres unmarked), the “hERG current change (%, negative = inhibition) at 1uM” value is given as 7.54%.

In the case of `CS(=O)(=O)N(CC(=O)N1CCN(c2ccc(F)cc2)CC1)c1cccc(Cl)c1`, the “hERG current change (%, negative = inhibition) at 1uM” value is on record as -5.21%.

With `O=C(COC(=O)c1cccc(S(=O)(=O)Nc2ccc(F)cc2)c1)NCCN1C(=O)CSC1=O`, the “hERG current change (%, negative = inhibition) at 1uM” value was 17.9%.

Take `Cc1cccc(-n2c(SCC(=O)Nc3cccc(S(=O)(=O)NC4=NCCCCC4)c3)nc3ccccc3c2=O)c1C`: the “hERG current change (%, negative = inhibition) at 1uM” value was found to be 3.92%.

`CCS(=O)(=O)c1nc(S(=O)(=O)c2ccc(C)cc2)c(NCCCN2CCOCC2)s1`: the “hERG current change (%, negative = inhibition) at 1uM” value is recorded as 8.76%.

Consider `COc1ccc(-c2cc(C(=O)N(C)CC(=O)Nc3ccccc3Cl)c3ccccc3n2)cc1OC`, for which the “hERG current change (%, negative = inhibition) at 1uM” value is given as 5.54%.

With `COC(=O)CN(C#N)c1nc(NC(C)C)nc(OC)n1`, the “hERG current change (%, negative = inhibition) at 1uM” value was 8.06%.

Regarding `Cc1ccc(Cl)cc1NC(=O)Nc1c(C)n(C)n(-c2ccccc2)c1=O`, the “hERG current change (%, negative = inhibition) at 1uM” value is 5.58%.

Turning to `N#CCSc1nc2c(sc(=S)n2Cc2ccco2)c(=O)n1-c1ccc(F)cc1`, the “hERG current change (%, negative = inhibition) at 1uM” value is 4.84%.

For `O=C(Cc1ccc(-n2cccc2)cc1)NC1CCCCC1`, the “hERG current change (%, negative = inhibition) at 1uM” value is 1.44%.

For the compound `Cc1ccc(NC(=O)NNC(=O)c2sccc2-n2cccc2)cc1`, the “hERG current change (%, negative = inhibition) at 1uM” value is reported as 2.3%.

`CN(C)c1nc(/C=C(\C#N)C(N)=O)c(Cl)n1-c1ccc(F)cc1`: the “hERG current change (%, negative = inhibition) at 1uM” value turned out to be 6.39%.

Regarding `Cc1ccc(CNC(=O)CN(C(=O)C2(C)CC(=O)N=C3C=CC=CN32)c2ccc(F)cc2)cc1` (centres unmarked), the “hERG current change (%, negative = inhibition) at 1uM” value is given as 8.44%.

As for `O=C(O)/C=C/C(=O)Nc1ccc(SC(F)(F)F)cc1`, the “hERG current change (%, negative = inhibition) at 1uM” value is on record as 10.1%.

Consider `COc1ccc(CC(=O)NCC(=O)N=Nc2c(O)[nH]c3ccccc23)cc1`, for which the “hERG current change (%, negative = inhibition) at 1uM” value is 14.6%.

In the case of `COc1cc(/C=C/C(=O)OCC(=O)N2CC(=O)Nc3ccccc32)ccc1O`, the “hERG current change (%, negative = inhibition) at 1uM” value is listed as 4.51%.

On to `Cc1cc(C)c(NC2=CC(=O)CC(C)(C)C2)c(C#N)c1.Cl`, for which the “hERG current change (%, negative = inhibition) at 1uM” value is recorded as -10.6%.

Regarding `COC1C/C(=N\O)C2OC(c3ccccc3)OCC2O1` (centres unmarked), the “hERG current change (%, negative = inhibition) at 1uM” value was determined as 5.16%.

Regarding `CC(C)Cc1cc(C(=O)Nc2ccccc2)c2ccccc2n1`, the “hERG current change (%, negative = inhibition) at 1uM” value is on record as 14.7%.

As to `Cc1ccc(S(=O)(=O)N/N=C2/CC(c3ccccc3)Oc3ccccc32)cc1` (centres unmarked), the “hERG current change (%, negative = inhibition) at 1uM” value came to 2.52%.

Regarding `O=C1NC(=O)C(CCc2ccncc2)(CCc2ccncc2)C(=O)N1CCc1ccc(F)cc1`, the “hERG current change (%, negative = inhibition) at 1uM” value is -77.1%.
